{"source": "paper PMC4336329", "about": "(PLoS ONE, 2015)", "note": "Out of some 310,000 compounds screened, about 2,200 (0.71%) showed an effect of 50% or more. The effect is printed as a negative number. The list shows a part of the results.", "data": [{"target": "human ether-à-go-go-related gene (hERG) potassium channel (human, UniProt Q12809)", "sequence (Q12809 whole entry, looked up)": "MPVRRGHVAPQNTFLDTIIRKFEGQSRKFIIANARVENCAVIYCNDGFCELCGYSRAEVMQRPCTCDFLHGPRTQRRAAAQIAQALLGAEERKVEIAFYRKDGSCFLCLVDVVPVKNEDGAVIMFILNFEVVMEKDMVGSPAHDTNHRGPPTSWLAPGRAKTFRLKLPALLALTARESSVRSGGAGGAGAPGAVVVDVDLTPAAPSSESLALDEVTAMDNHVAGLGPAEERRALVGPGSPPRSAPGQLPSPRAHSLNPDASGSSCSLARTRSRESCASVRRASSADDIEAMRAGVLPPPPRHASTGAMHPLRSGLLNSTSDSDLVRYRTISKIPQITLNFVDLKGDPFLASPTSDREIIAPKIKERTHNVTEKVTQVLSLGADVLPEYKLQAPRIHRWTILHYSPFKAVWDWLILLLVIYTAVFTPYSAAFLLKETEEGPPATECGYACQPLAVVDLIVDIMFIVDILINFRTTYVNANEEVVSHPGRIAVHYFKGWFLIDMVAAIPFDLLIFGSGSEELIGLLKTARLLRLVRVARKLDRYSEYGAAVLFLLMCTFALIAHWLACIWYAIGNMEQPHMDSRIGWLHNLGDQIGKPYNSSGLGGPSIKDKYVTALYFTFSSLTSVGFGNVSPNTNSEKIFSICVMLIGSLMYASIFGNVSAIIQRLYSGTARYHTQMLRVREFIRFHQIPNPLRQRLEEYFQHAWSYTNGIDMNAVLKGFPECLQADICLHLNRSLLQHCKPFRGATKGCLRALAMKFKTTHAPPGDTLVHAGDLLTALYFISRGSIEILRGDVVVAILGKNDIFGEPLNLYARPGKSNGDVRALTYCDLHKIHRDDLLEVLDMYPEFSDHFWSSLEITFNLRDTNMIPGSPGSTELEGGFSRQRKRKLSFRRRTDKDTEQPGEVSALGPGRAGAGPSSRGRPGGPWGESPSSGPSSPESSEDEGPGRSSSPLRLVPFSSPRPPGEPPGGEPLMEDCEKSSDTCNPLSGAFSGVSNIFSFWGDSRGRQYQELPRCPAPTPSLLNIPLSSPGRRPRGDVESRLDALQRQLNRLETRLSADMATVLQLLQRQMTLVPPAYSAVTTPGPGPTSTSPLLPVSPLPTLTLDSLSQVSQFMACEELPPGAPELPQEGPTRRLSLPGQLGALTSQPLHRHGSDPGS", "test": "primary screen, population patch clamp on CHO cells stably expressing hERG", "units": {"hERG current change (%, negative = inhibition) at 1uM": "%"}, "values": [{"smiles": "COC(=O)c1nn(-c2ccc(Oc3ccccc3)cc2)c(=O)cc1O", "hERG current change (%, negative = inhibition) at 1uM": 8.62}, {"smiles": "O=C(CN1CCCCC1)NCC(=O)Nc1ccc(Br)cc1C(=O)c1ccccc1", "hERG current change (%, negative = inhibition) at 1uM": -77.2}, {"smiles": "O=C(Nc1ccccn1)Nc1cccs1", "hERG current change (%, negative = inhibition) at 1uM": 6.52}, {"smiles": "CC(=O)NS(=O)(=O)c1ccc(NC(=S)NC(=O)CC(C)C)cc1", "hERG current change (%, negative = inhibition) at 1uM": 14.1}, {"smiles": "CCCCn1c(N)c(N(Cc2ccccc2OC)C(=O)c2cc(=O)[nH]c3ccccc23)c(=O)[nH]c1=O", "hERG current change (%, negative = inhibition) at 1uM": 7.99}, {"smiles": "CCC(C)(C)NC(=O)C(OC(=O)c1cc2sccc2n1C)c1ccc(OC)cc1", "note": "(stereo not shown)", "hERG current change (%, negative = inhibition) at 1uM": 3.91}, {"smiles": "COc1ccc(Nc2nc3[nH]c(=O)cc(O)c3s2)cc1", "hERG current change (%, negative = inhibition) at 1uM": 8.1}, {"smiles": "CC1Cc2ccccc2N1C(=O)C1CC(=O)N(c2ccccc2)C1", "note": "(stereo not shown)", "hERG current change (%, negative = inhibition) at 1uM": 10.1}, {"smiles": "CC[N+](CC)(CC)CCC(O)(c1ccccc1)C1CCCCC1.[Cl-]", "note": "(stereo not shown)", "hERG current change (%, negative = inhibition) at 1uM": 12.8}, {"smiles": "CCCOc1nc(SCCC)nc2c1cnn2-c1ccccc1", "hERG current change (%, negative = inhibition) at 1uM": 4.47}, {"smiles": "CCC(C)NC(=O)/C(=C/c1ccco1)c1ccccc1", "note": "(stereo not shown)", "hERG current change (%, negative = inhibition) at 1uM": 4.99}, {"smiles": "COc1ccc(C)cc1S(=O)(=O)N(C)CC(=O)Nc1ccc2c(c1)OCO2", "hERG current change (%, negative = inhibition) at 1uM": 1.3}, {"smiles": "COC(=O)COc1ccc(S(=O)(=O)NCCC2=CCCCC2)cc1Cl", "hERG current change (%, negative = inhibition) at 1uM": 11.4}, {"smiles": "COc1ccccc1NC(=O)CSc1nnc(C2CCCCC2)n1C", "hERG current change (%, negative = inhibition) at 1uM": 14.7}, {"smiles": "NC1=NC(=Nc2cccc(S(N)(=O)=O)c2)c2ccccc21", "hERG current change (%, negative = inhibition) at 1uM": 12.6}, {"smiles": "OCC1(Cc2ccccc2)CCN(CCCC2CCCC2)CC1", "hERG current change (%, negative = inhibition) at 1uM": -79}, {"smiles": "Cc1cc(NS(=O)(=O)c2ccc(NC(=O)CCN3C(=O)c4ccccc4C3=O)cc2)no1", "hERG current change (%, negative = inhibition) at 1uM": 9.94}, {"smiles": "COC(=O)c1sc(S(=O)(=O)N2CCC(C(N)=O)CC2)c(C(=O)OC)c1C", "hERG current change (%, negative = inhibition) at 1uM": -10.8}, {"smiles": "O=C(CC(=O)c1ccccc1)Nc1ccc2c(c1)OCCO2", "hERG current change (%, negative = inhibition) at 1uM": -1.19}, {"smiles": "O=C(Nc1ccc2c(c1)OCO2)C1CC(=O)N(CCc2ccccc2)C1", "note": "(stereo not shown)", "hERG current change (%, negative = inhibition) at 1uM": 4.44}, {"smiles": "COc1ccc(NC(=O)COC(C)=O)cc1OC", "hERG current change (%, negative = inhibition) at 1uM": 8.18}, {"smiles": "CC(C)(C)C(=O)N1CCN(c2ccc(Cl)cc2[N+](=O)[O-])CC1", "hERG current change (%, negative = inhibition) at 1uM": -13.8}, {"smiles": "Cc1cccc(OCC(=O)N(Cc2ccc(F)cc2)C2CCS(=O)(=O)C2)c1C", "note": "(stereo not shown)", "hERG current change (%, negative = inhibition) at 1uM": -3.51}, {"smiles": "COc1ccc(O)c(-c2nc(N)nc(N)n2)c1", "hERG current change (%, negative = inhibition) at 1uM": -0.656}, {"smiles": "CC(=O)Nc1cccc(OCC(=O)/C=C2\\N(C)c3ccccc3C2(C)C)c1", "hERG current change (%, negative = inhibition) at 1uM": 14.5}, {"smiles": "CN1CCN(C(=O)c2ccc(Cl)c(S(=O)(=O)N3CCCCCC3)c2)CC1", "hERG current change (%, negative = inhibition) at 1uM": -3.36}, {"smiles": "CCn1c(COc2ccccc2C)nnc1SCC(=O)N1CCN(c2ccccc2)CC1", "hERG current change (%, negative = inhibition) at 1uM": -11.3}, {"smiles": "COc1ccc(-n2nc(C(=O)NCC(=O)N3CCOCC3)c3ccccc3c2=O)cc1Cl", "hERG current change (%, negative = inhibition) at 1uM": 14.3}, {"smiles": "C[N+]12CCCCC1C(COC(=O)c1ccc3c(c1)OCO3)CCC2.[I-]", "note": "(stereo not shown)", "hERG current change (%, negative = inhibition) at 1uM": 15.4}, {"smiles": "COc1ccc(/C=N/n2c(-c3ccco3)nc3ccccc3c2=O)cc1", "hERG current change (%, negative = inhibition) at 1uM": 12.4}, {"smiles": "Cc1cc(NCc2ccc(F)cc2Cl)n2nnnc2n1", "hERG current change (%, negative = inhibition) at 1uM": 3.39}, {"smiles": "COc1cc2cc(CN(Cc3cccnc3)C(=O)Nc3ccccc3)c(=O)[nH]c2cc1OC", "hERG current change (%, negative = inhibition) at 1uM": 6.43}, {"smiles": "O=C(O)C1CCCCN1S(=O)(=O)c1ccc2ccccc2c1", "note": "(stereo not shown)", "hERG current change (%, negative = inhibition) at 1uM": -0.446}, {"smiles": "COCCNC(=O)CSc1nc2ccccc2c(=O)n1CC1CCCO1", "note": "(stereo not shown)", "hERG current change (%, negative = inhibition) at 1uM": -1.98}, {"smiles": "O=C(Nc1ccc(Oc2ccccc2)nc1)C1CCN(Cc2cccc(F)c2)CC1", "hERG current change (%, negative = inhibition) at 1uM": 2.74}, {"smiles": "Cc1ccc(P(=O)(OCCN2CCOCC2)C(C)(C)C)o1", "note": "(stereo not shown)", "hERG current change (%, negative = inhibition) at 1uM": -0.356}, {"smiles": "CC1CCCN(C(=O)CCc2ccccc2)C1", "note": "(stereo not shown)", "hERG current change (%, negative = inhibition) at 1uM": 3.25}, {"smiles": "N#Cc1cc2c(nc1SCC(=O)Nc1sc3c(c1C#N)CCC3)CCC2", "hERG current change (%, negative = inhibition) at 1uM": 9.46}, {"smiles": "CC(C)C(=O)c1cc2c(cc1NC(=O)Nc1cccc3ccccc13)OCCO2", "hERG current change (%, negative = inhibition) at 1uM": 9.04}, {"smiles": "NS(=O)(=O)c1ccc(NC(=S)Nc2nn(Cc3ccc(Cl)cc3Cl)cc2Cl)cc1", "hERG current change (%, negative = inhibition) at 1uM": 12.8}, {"smiles": "COc1ccc(OCC(=O)Nc2c3c(nn2-c2ccc(OC)cc2)CS(=O)(=O)C3)cc1", "hERG current change (%, negative = inhibition) at 1uM": 1.4}, {"smiles": "COC(=O)Cn1ccc(N(C)C)c(C#N)c1=O", "hERG current change (%, negative = inhibition) at 1uM": 13.8}, {"smiles": "C[C@@H]1CC=C[C@H]2[C@H]1C(=O)N(Cc1ccccc1)[C@H]2c1ccc(/C=C/c2ccccc2)cc1F", "hERG current change (%, negative = inhibition) at 1uM": 11.8}, {"smiles": "Cc1ccc(Cl)cc1NC(=O)Cn1c(C)csc1=O", "hERG current change (%, negative = inhibition) at 1uM": 15.1}, {"smiles": "CN1C2CCC1CC(N(CCc1ccccc1)C(=O)c1ccc(Cl)cc1)C2.Cl", "note": "(stereo not shown)", "hERG current change (%, negative = inhibition) at 1uM": -78.8}, {"smiles": "C=CCS(=O)(=O)N1CCCC(Cc2ccccc2C)(C(=O)OCC)C1", "note": "(stereo not shown)", "hERG current change (%, negative = inhibition) at 1uM": 6.26}, {"smiles": "O=C(NC1CCSc2ccccc21)c1cccc(Cl)c1", "note": "(stereo not shown)", "hERG current change (%, negative = inhibition) at 1uM": 12.6}, {"smiles": "CC(NC(=O)C1CCN(C(=O)Nc2ccccc2)CC1)c1ccc(Cl)cc1", "note": "(stereo not shown)", "hERG current change (%, negative = inhibition) at 1uM": -2.16}, {"smiles": "O=c1[nH]c(SCc2ccccc2Cl)nc2c1CCC2", "hERG current change (%, negative = inhibition) at 1uM": 5.03}, {"smiles": "CC1=C(C#N)C(/C=N/OCc2ccc(F)cc2Cl)CC(=O)N1", "note": "(stereo not shown)", "hERG current change (%, negative = inhibition) at 1uM": 3.06}, {"smiles": "CN(C)c1ccc(C(=O)N2CC(=O)N(CCc3ccccc3)C(=O)C2)cc1", "hERG current change (%, negative = inhibition) at 1uM": 6.92}, {"smiles": "COCCNC(=O)Cn1c(=O)n(C)c2ccccc21", "hERG current change (%, negative = inhibition) at 1uM": 15}, {"smiles": "N/C(=N\\OC(=O)c1cccc2ccccc12)c1ccc(Br)cc1", "hERG current change (%, negative = inhibition) at 1uM": -1.55}, {"smiles": "CCc1ccc(OCC(=O)NNC(=O)Cc2ccc(S(=O)(=O)N3CCOCC3)s2)cc1", "hERG current change (%, negative = inhibition) at 1uM": -2.08}, {"smiles": "Cc1ccc(NC(=O)C(NCc2ccccn2)c2ccccc2)cc1", "note": "(stereo not shown)", "hERG current change (%, negative = inhibition) at 1uM": 12.2}, {"smiles": "Cc1ccc(C)c(NNC(N)=S)c1", "hERG current change (%, negative = inhibition) at 1uM": 2.99}, {"smiles": "O=[N+]([O-])c1ccc2nc(C3CCCCC3)[nH]c2c1", "hERG current change (%, negative = inhibition) at 1uM": 6.81}, {"smiles": "O=C(CCNC(=O)c1ccco1)NCc1ccccc1", "hERG current change (%, negative = inhibition) at 1uM": -3.84}]}]}
